The supplement of paper PMC3334620
Over roughly 33,000 sequences, “E-score (-0.5 to 0.5)” has its median near -0.016; the highest 2% begin near 0.31. Some of the results follow.

Biological target: Cst6 (UniProt P40535)
Experiment: PBM E-score (8-mer binding enrichment) (E-score (-0.5 to 0.5)); higher = stronger / more preferred TF binding; most listed sequences are background and not binding sites
Details: protein concentration: 200 nM; construct: GST-DNA-binding domain
Summary of the method: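 Each ungapped eight-base word and its reverse complement, pooled, received an E-score from the Universal PBM Analysis Suite. Underlying scans, normalised with masliner, recorded fluorescent anti-GST bound to GST-tagged yeast transcription factors. These were applied at about 100-200 nM to universal all-10-mer Agilent arrays double-stranded by primer extension.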

Sequence	PBM E-score
GAATAATC	0.197
AAGGACGG	-0.251
ACAAGCAA	0.0476
CCGTTCCG	0.145
CGATGTAC	0.0211
CTAAGCGC	-0.179
CAGCCTGC	-0.179
CGTTCCAA	0.104
TAAGAAAA	0.221
GTTGAACA	-0.153
GGTCCCCA	-0.319
AGCCCTCA	-0.235
GCCCGTAC	-0.12
CCACAAAC	0.0274
CTCAAAAA	0.126
AAACTAGG	-0.0649
TTCGGCAA	0.00074
CAGATGCG	-0.149
GTTTCATA	-0.0397
CGCAACGA	0.0974
ATTTCAGA	0.0576
AACTTCGG	-0.0393
CCTAGTGA	-0.042
ATTCAGAC	0.0865
CTAAAGGC	0.0355

Sequence	PBM E-score
CGTTTTTA	0.118
GGGCATAC	-0.197
CTCTGTCA	0.0734
ACTCGACA	-0.0355
CTTTATAA	0.204
ACTGGTAT	-0.0791
ACCGGGTC	-0.147
CTACGATC	-0.0293
CGGCGTAG	0.11
ACATTTAC	0.168
ACAATTGC	0.0557
ACGCTCAT	0.114
CGCTACGC	-0.207
AAAGGGAC	-0.094
ATTTCGGG	0.0105
GGTCTGCA	-0.177
CACCTGGA	-0.135
TCTTGTAA	0.272
CTCGGTTA	0.0295
ACGGAAGG	-0.191
AACATAAC	0.204
CCGATTAG	-0.0995
ATCCTGGG	-0.125
CCATTTAG	-0.0974
GGGCGCCA	0.071

Sequence	PBM E-score
CCACCCTA	-0.145
CCATTTCG	-0.158
GACTCGGA	-0.236
GGTCTGAC	0.028
CTGTCCAA	-0.0724
CTTACTTC	0.204
CGAAAGTA	-0.108
GCAGCTGC	-0.0192
TCGGCGCA	0.071
AAAAACCC	-0.0383
CTAGTGTA	0.00066
GATGCTCC	-0.26
CCTACGAG	-0.169
CCTAGAGA	-0.232
AGATGCTG	-0.178
GCGTGCCC	-0.283
GAAAGGTA	0.0556
CTATCAAA	-0.039
CTCCGGGC	-0.207
CCCCGAGC	-0.153
TCAAGCCA	-0.0234
TATAAGGA	0.168
TAAGTAGA	0.144
CACCTAAG	0.108
GATAGACC	-0.0997

Sequence	PBM E-score
ATAAAAAC	0.28
CACCAGGC	-0.22
CAGTTTGC	0.0163
CATAAAGG	0.00565
CCTCCTAA	-0.114
CAGTCTCC	-0.163
ATTGAGCC	0.197
CCGGTGCA	-0.272
AGCTGTAA	0.0976
CCGGCAGG	-0.104
CCTTTGAG	-0.167
CTCATATC	-0.0325
TATGGTCA	0.0429
ATGATGCC	0.347
ATTCACGC	0.0513
GACTACGA	-0.135
GAAGCCCA	-0.316
GATGTACC	0.14
AACCGGGC	-0.226
AGTTATGG	0.0629
CCCTTCAG	-0.258
ATCTCAGA	-0.0422
CACCGATA	-0.0251
AAATCACC	0.197
GCACAGGA	-0.161

Sequence	PBM E-score
GTCAAAGA	0.0985
AATCCGCT	-0.0893
AACTTGAA	0.127
CTTTCTGA	0.192
CGGCGTGA	0.139
CCTACCAA	0.0973
AGGGTGCA	-0.232
CCCTGCGA	-0.115
CGTCGCAA	0.0553
CGTCGGCA	-0.135
CAGCTCAA	-0.0577
ATTTGGCC	0.0141
AACGCCTT	0.0459
ATCATAAT	0.291
CGGCGTTA	0.244
CTCGGTTC	-0.254
AAGTATTC	0.103
AGAGTGCT	0.00594
TACGTAGA	0.224
ACAGCTCA	-0.0394
CATTCCGC	-0.0695
ATAGACAG	0.0164
GGATATAC	0.0302
ACGGGCGC	-0.129
AATTAACT	0.17

Sequence	PBM E-score
AAGCGTAT	0.00964
AAGCGCTA	0.0622
CAGCCTAC	-0.183
CGCGGGCA	0.00078
CCTCGCCG	-0.332
CTCTACGC	-0.109
GCCCCTAA	-0.317
AGCACGTA	-0.0004
CAGTGTGG	-0.119
CAAACTGC	0.0914
ACGCGTAC	0.0978
GATACGCC	-0.1
CGCATTAG	-0.0836
CTTACGAC	-0.0377
AAAGTCAG	0.0101
AAAACAAG	0.0655
CGTGCGAG	0.0367
ATAGGTTG	-0.053
ACCACGCT	-0.118
GAGAGTAA	0.104
ACAATGTA	0.117
TCACATAA	0.237
ATCGTTAC	0.0267
GCCCGAGC	-0.18
ATAAAATC	0.151

Sequence	PBM E-score
ACGAGGTG	-0.0315
AGTCACTA	0.209
GCCCGTTA	-0.235
CCCCCATA	-0.336
CAAGATGC	0.0767
ATATGCTG	-0.053
GCAATACA	0.214
CAAGTATC	-0.0576
ACATCGCA	-0.115
GCTTCGTA	-0.222
CATCAGGC	0.124
AGCCTCTC	-0.316
CCACACCG	0.017
CAGCAGCG	-0.0773
CCTGCGAC	-0.317
AATGCAGT	-0.0148
CCATGTGC	-0.00378
AGCCAGGG	-0.248
ACTGGATG	-0.144
GACCCCAA	-0.206
ATGAGGGA	-0.0325
AGATGTTG	-0.138
AGTTTAAA	0.224
AGGTCGGG	-0.171
GCAGAAGC	-0.0357

Sequence	PBM E-score
GACGCTCA	0.0748
ACAGTTAT	-0.0188
AGCTAGCA	-0.097
ACTGGACC	-0.0967
GAATGTGC	0.07
ATCATGAA	0.17
CAGCGCAA	-0.0337
AAGACATG	0.113
GGCCCAAA	-0.2
CGGGCCAG	-0.158
CTTGGGGC	-0.0223
CGTAAGCA	0.178
CAGTCCAG	-0.315
AGATAAAC	0.0985
AGACTCCT	-0.157
ATCTAGGC	-0.253
TCACGAAA	0.18
CGCCGGCC	-0.168
ACGCTTCG	-0.0355
CACTCCAC	-0.0301
AGACTCCC	-0.342
TGCCTCAA	-0.0378
ACCGCGGC	0.164
CAACCTGC	-0.0302
ACTACCGC	-0.0306

Sequence	PBM E-score
AAGGCTCG	-0.202
CCCTTCGG	-0.0367
CTCTCCAC	-0.308
ACGTTTCT	-0.0531
GCGAATGA	0.263
AATCCAAC	-0.118
ACGACCCT	-0.238
CACCTCTG	-0.172
AGGTGGTA	-0.0325
CCTATTAC	0.147
CGCGATCA	0.0196
AAGCAAAG	-0.0626
AGATGCCC	-0.166
CTGTGTCA	0.0935
GCAGTAGA	-0.0865
ACTTTCTG	0.0842
CGACGAAC	-0.0573
CGCTTATA	0.245
CGTCTTTC	-0.0618
AGAGTTGC	-0.2
GGAAACAC	0.0622
ACGTGGCT	0.0489
GCAAGGCA	0.16
CTCGATTA	0.17
CGGGCGTC	-0.0942

Sequence	PBM E-score
CGGAGAGC	-0.0924
AGCTAAAT	0.0716
ATATGGCC	-0.144
GAAAACTA	0.0568
CAAGGGTA	-0.223
CGATTGTA	0.0905
ATTGCCTC	0.144
AACACACG	0.0436
TGCACCAA	-0.0568
TATGTTCA	0.0647
AGGCTGCC	-0.276
CATACACC	-0.0592
AACGTTGA	0.16
GCTCCCAA	-0.219
AAACGTGA	0.137
AGCAGTTG	-0.162
GCCGCAGA	0.136
CATTTCAG	0.0441
GCTCGCCA	-0.255
ACTGGTAA	0.107
CACAGGCG	-0.0418
AAGCCAAT	-0.00288
TAACAAAA	0.353
TCGTTGCA	0.00185
GGCCACAC	-0.159

Sequence	PBM E-score
ACATTGTA	0.0674
AATGCTTG	-0.156
TTGCTAAA	0.0398
GTCCGCCA	-0.193
GCAGATGC	-0.122
GTAGCTAA	-0.0668
CAGGCAGA	-0.0347
CTAGCGGC	-0.249
GCCGCGTA	0.191
AGTAGGCC	-0.195
AACTGGTC	-0.14
AGAGGGTG	-0.204
CATGCTCA	0.0311
AGCCTTCG	-0.254
CATGCCTC	0.225
CTAAGTGC	-0.0297
CCATAGGG	-0.192
GTCTGCGA	-0.0431
AGATGATC	0.0705
AGTCGTCG	-0.197
TGCAAGCA	-0.0921
CGTCATTC	0.467
ACCAGCTA	-0.0308
ATTATCCC	0.106
ATGCGCAA	0.0379

Sequence	PBM E-score
CGTGAAAG	0.143
ACTGCCCA	-0.241
CTGCAGGC	-0.202
GCTAAACA	0.0779
CTATGCCA	-0.114
GGTTATAA	0.152
CAACCACG	0.0314
AACCAAGG	0.00035
GCCTCAAA	-0.00267
AAAGGCGT	0.0889
CGAGGATA	-0.0893
ATCGTGGA	-0.0118
GAAGCGAC	-0.145
AAGCCTAT	0.088
GACGTCTC	0.195
GAGTGAAA	0.00981
TCCAACCA	-0.0556
ATCTAGGG	-0.0697
ATCGTGCC	0.0448
CAGATCTC	-0.0666
AGGCTCCC	-0.306
ACCAAAAA	0.257
AGCACACC	-0.204
AACCAAAC	-0.102
ATTTAGGC	0.0895

Sequence	PBM E-score
ATCCTAGG	-0.302
CCTACAGA	-0.179
ACCCCGGT	-0.348
CTGGAGCC	-0.164
AATGGGGT	0.0446
CGTAGTTC	-0.059
GGTTAAAC	-0.0296
ATTTGGGC	-0.102
GCCGAGGC	0.118
CGAGCACG	-0.21
AGCGAGAT	0.0245
CTTAAGGC	-0.0441
ATCGCTTC	-0.00604
GCAAACCA	0.0183
ATCCATGA	-0.0487
CAGGACCA	-0.193
CCGTGGCC	-0.29
CTGAAAAG	0.0398
GAACGTTC	-0.193
GAGCGTAC	-0.197
ATTGCCAC	-0.00183
AGCGATTA	-0.00916
AGCCGAAG	-0.0711
CTGAGCAA	-0.0142
CCTTGCAC	-0.0974

Sequence	PBM E-score
GCCTTCTA	-0.141
AGCCTCAA	-0.117
ACCTTATC	0.104
CCGGTGGC	-0.24
AAGACGGT	-0.112
GTTGTGCA	-0.317
CCCACCCG	-0.0131
AACTTCGT	0.0193
GTTTTTGA	0.153
ATGTACTC	-0.0162
ACCCAATG	0.00684
ACGGCATC	0.375
CACTGACA	0.08
CATCAATG	0.278
CTGTTCAC	-0.141
CTCCGGTA	-0.0404
AAAGTCTG	-0.0989
TCAGCTCA	0.0126
ATTACCCG	0.0968
